# Source: PubChem BioAssay AID1240 (Sanford-Burnham Center for Chemical Genomics, 2008)
# Out of some 50,000 compounds screened, about 800 (1.6%) showed an effect of 50% or more. Some of the results follow.
# Biological target: Bcl-2-like protein 10 (Homo sapiens) (UniProt Q9HD36)
# Assay: Phenotype converters, Bcl-B/TR3 peptide binding displacement, primary biochemical FP (AID 1240);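 also: 0% = Bcl-B with tracer peptide and DMSO and 100% = tracer peptide lacking Bcl-B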
# Conditions: GST-Bcl-B / FITC-TR3 peptide fluorescence polarization; stronger effect = higher value; compound at 3.75 mg/L
# Chain of UniProt Q9HD36 (Q9HD36 whole entry, looked up): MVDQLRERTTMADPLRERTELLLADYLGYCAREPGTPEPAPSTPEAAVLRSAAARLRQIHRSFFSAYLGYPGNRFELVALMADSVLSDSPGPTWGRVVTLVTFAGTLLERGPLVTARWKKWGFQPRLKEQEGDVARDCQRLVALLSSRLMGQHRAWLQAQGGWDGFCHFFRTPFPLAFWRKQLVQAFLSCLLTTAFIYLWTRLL
row,SMILES,displacement
1,CC1(C)Cc2c(sc(NC(=O)c3ccc(F)cc3)c2C#N)CO1,10%
2,O=C(Nc1nnc(COc2ccc(F)cc2)s1)c1cccc2ccccc12,-10.6%
3,O=S(=O)(Nc1ccc(O)c(Cl)c1)c1cc(Cl)ccc1Cl,7.9%
4,COc1cc2c(cc1NS(=O)(=O)c1ccc([N+](=O)[O-])cc1)oc1ccccc12,-2.9%
5,Cc1ccc(S(=O)(=O)OCCOCCOS(=O)(=O)c2ccc(C)cc2)cc1,-5.3%
6,Cc1ccc(OCC(=O)NNC(=O)c2cc(Cl)ccc2O)c(C)c1,-16.7%
7,COc1ccc(C2CC(=O)C3=C(C2)Nc2ccccc2NC3c2ccccc2Br)cc1 (stereo not given),-1.7%
8,O=C(CCCC(=O)Nc1cccc(Br)c1)N/N=C/c1cc([N+](=O)[O-])ccc1O,-21.6%
9,CCOC(=O)C1=C(c2ccccc2)N=c2s/c(=C\c3ccc(O)c(OC)c3)c(=O)n2C1c1ccccc1OC (stereo not given),43.3%
10,Cc1cc(/C=N/NC(N)=S)c(C)n1-c1cccc([N+](=O)[O-])c1,-17%
11,FC(F)C(F)(F)c1nc2ccccc2[nH]1,1.9%
12,NC(=O)NC(c1ccccc1)c1ccccc1F (stereo not given),7.7%
13,O=c1/c(=C/c2cccc(OCc3ccccc3F)c2)sc2nc3ccccc3n12,1.9%
14,O=C(Nc1cc(C(F)(F)F)cc(C(F)(F)F)c1)c1cccc(Br)c1,-6.3%
15,O=C(CN(c1cccc(Cl)c1)S(=O)(=O)c1ccccc1)N1CCc2ccccc2C1,3.8%
16,O=C(/C=C/c1ccccc1)NC(=S)Nc1cccc(C(F)(F)F)c1,9.2%
17,C(=N\n1cnnc1)/c1ccc(OCCOc2ccccc2)cc1,11.2%
18,O=C1CSC(c2cn(-c3ccccc3)nc2-c2ccc(Cl)cc2)N1Cc1ccco1 (stereo not given),-13.9%
19,FC(F)(F)c1nnc2ccc(N3CCOCC3)nn12,7.7%
20,COc1ccc(C2SCCN2S(=O)(=O)c2ccc(C)cc2)cc1 (stereo not given),13.4%
21,CCOC(=O)c1c(NC(=O)/C=C/c2ccc3c(c2)OCO3)sc(C(C)=O)c1C,7.7%
22,COC(=O)c1c(N)sc(C(=O)Nc2ccccc2OC)c1C,1.7%

row,SMILES,displacement
1,COc1ccc(C2/C(=C(\O)c3ccc(C)cc3)C(=O)C(=O)N2CCCC(=O)O)cc1 (stereo not given),2.7%
2,CCN(CC)S(=O)(=O)c1ccc(NC(=O)COc2ccc(Cl)cc2)cc1,2.7%
3,Cc1cc(/C=N/O)c(C)c(COCc2cc(C)cc(/C=N/O)c2C)c1,-0.7%
4,O=C(O)C1CCCCC1C(=O)NCc1ccccc1 (stereo not given),1.1%
5,Cc1ccc(C(=O)N/C(=C\c2ccc(-c3cc(Cl)ccc3Cl)o2)C(=O)NCc2ccco2)cc1,-92.2%
6,CC(C)OP(=O)(OC(C)C)C(Nc1cccc(N)c1)c1cccc(N)c1 (stereo not given),-4.6%
7,O=C(O)c1cccc(N2C(=O)c3cc4ccccc4c(-c4ccccc4)c3C2=O)c1,2.7%
8,N#C/C(=C\c1ccc(-c2cccc(Cl)c2)o1)c1ccccc1,-6.4%
9,COc1cc(C2Nc3ccccc3NC3=C2C(=O)CC(c2ccc4c(c2)OCO4)C3)cc(OC)c1O (stereo not given),9.5%
10,Cc1ccc(/C=C/C(=O)Nc2ccc(Br)cc2)o1,11.8%
11,COc1ccc(OC)c(NC(=O)C(=O)NCc2ccc(C)cc2)c1,-6.1%
12,CCOc1ccccc1/C=N\N1CCN(c2ccccc2OC)CC1,1.1%
13,O=C(NN1C(=O)c2ccccc2C1=O)c1ccc2c(c1)C(=O)N(c1ccc(Sc3ccc([N+](=O)[O-])cc3)cc1)C2=O,15.7%
14,O=C(/C=C/c1cccc(C(F)(F)F)c1)Nc1ccc(Br)cc1,16.9%
15,CN1CCN(C(=O)c2cnn(-c3ccccc3)c2NC(=O)c2ccc(Br)cc2)CC1,-5.1%
16,COc1ccc(C(NS(=O)(=O)c2ccc3ccccc3c2)c2ccccc2)cc1 (stereo not given),-16.2%
17,O=C(c1ccccc1)N1CCN(C(=O)c2cnn3c2NC(c2ccc(Br)cc2)CC3C(F)(F)F)CC1 (stereo not given),11%
18,Cc1ccc2nc(/C(C#N)=C\c3cc(Br)ccc3OC(C)C)[nH]c2c1,13.1%
19,CC(=O)N(CCC(c1ccccc1)C1CCOC(C)(C)C1)Cc1ccccc1 (stereo not given),-14.6%
20,COc1cccc(NC(=O)c2cc(-c3ccc(OC)c(OC)c3)nc3ccccc23)c1,9.6%
21,O=C1CSC(c2ccccc2)N1CCN1CCCCC1 (stereo not given),-42.9%
22,Cc1cc(/C=N\NC(=O)c2cc3ccccc3cc2O)c(C)n1-c1ccccc1,21.7%

row,SMILES,displacement
1,COc1cccc(/C=C2/C(=O)NC(=O)N(c3ccc(Br)cc3)C2=O)c1O,10.7%
2,NC(=O)c1cc(NC(=O)c2cc3ccccc3cc2O)ccc1Cl,8.4%
3,Cc1ccc(S(=O)(=O)N2CCN(c3ccc([N+](=O)[O-])c(N4CCOCC4)c3)CC2)cc1,7.1%
4,O=C(O)CCCCCN1C(=O)C(=O)/C(=C(/O)c2ccccc2)C1c1ccccc1 (stereo not given),2.1%
5,O=[N+]([O-])c1ccccc1N[C@@H]1OC[C@@H](O)[C@H](O)[C@H]1O,-3.5%
6,CC1=C(C(=O)OCC(C)C)C(c2ccc(Br)cc2)NC(=O)N1 (stereo not given),3.3%
7,Cc1ccc(C(C)C)c(OCC(=O)Nc2cccc3nsnc23)c1,23.7%
8,CC1=NN(c2ccc(S(N)(=O)=O)cc2)C(=O)/C1=C\c1ccc(C(C)C)cc1,3.4%
9,O=C(O)c1ccccc1N1C(=O)c2ccc(Oc3ccc([N+](=O)[O-])cc3)cc2C1=O,-8.6%
10,Cc1ccc(NC(=O)COc2ccccc2Cl)c(C(=O)O)c1,11.9%
11,COc1ccc(CCN2C(=O)CC(NCCc3ccc(S(N)(=O)=O)cc3)C2=O)cc1OC (stereo not given),-2.6%
12,O=C(c1ccccc1Cl)N1CCN(c2ccc(Cl)cc2[N+](=O)[O-])CC1,15.5%
13,Cc1ccc(OCCCNC(C)(C)C)cc1C,5.9%
14,COc1ccc(C2CC(C(F)(F)F)n3nc(C(=O)Nc4cccnc4)cc3N2)cc1 (stereo not given),0.5%
15,CCOc1ccc2c(c1)-c1c(ssc1=S)C(C)(C)N2C(=O)c1cccnc1,10.9%
16,Nn1cnnc1N/N=C/c1ccc(O)cc1O,-9%
17,O=C(NC(=S)Nc1ccc(Cl)cc1)c1ccccc1,3.9%
18,CCOc1ccc(S(=O)(=O)N(CC(=O)N2CCc3ccccc3C2)c2ccc(C)cc2)cc1,-4.6%
19,Cc1ccc(-c2cc(C(F)(F)F)n3nc(C(=O)OC(C)C)cc3n2)cc1,10.8%
20,O=C(O)/C=C\C(=O)NN=C(c1ccccc1)c1ccccc1,14.3%
21,COc1ccc(-c2nc(-c3ccc(O)cc3)[nH]c2-c2ccc(OC)cc2)cc1,18.1%
